Experimental data from paper PMC4336329 (PLoS ONE, 2015).
In all, about 310,000 compounds went through this assay and about 2,200 (0.71%) showed an effect of 50% or more. Effects have a minus sign here. The list shows a part of the results.

target: human ether-à-go-go-related gene (hERG) potassium channel (human, UniProt Q12809); experiment: primary screen, population patch clamp on CHO cells stably expressing hERG
Sequence (Q12809 whole entry, looked up): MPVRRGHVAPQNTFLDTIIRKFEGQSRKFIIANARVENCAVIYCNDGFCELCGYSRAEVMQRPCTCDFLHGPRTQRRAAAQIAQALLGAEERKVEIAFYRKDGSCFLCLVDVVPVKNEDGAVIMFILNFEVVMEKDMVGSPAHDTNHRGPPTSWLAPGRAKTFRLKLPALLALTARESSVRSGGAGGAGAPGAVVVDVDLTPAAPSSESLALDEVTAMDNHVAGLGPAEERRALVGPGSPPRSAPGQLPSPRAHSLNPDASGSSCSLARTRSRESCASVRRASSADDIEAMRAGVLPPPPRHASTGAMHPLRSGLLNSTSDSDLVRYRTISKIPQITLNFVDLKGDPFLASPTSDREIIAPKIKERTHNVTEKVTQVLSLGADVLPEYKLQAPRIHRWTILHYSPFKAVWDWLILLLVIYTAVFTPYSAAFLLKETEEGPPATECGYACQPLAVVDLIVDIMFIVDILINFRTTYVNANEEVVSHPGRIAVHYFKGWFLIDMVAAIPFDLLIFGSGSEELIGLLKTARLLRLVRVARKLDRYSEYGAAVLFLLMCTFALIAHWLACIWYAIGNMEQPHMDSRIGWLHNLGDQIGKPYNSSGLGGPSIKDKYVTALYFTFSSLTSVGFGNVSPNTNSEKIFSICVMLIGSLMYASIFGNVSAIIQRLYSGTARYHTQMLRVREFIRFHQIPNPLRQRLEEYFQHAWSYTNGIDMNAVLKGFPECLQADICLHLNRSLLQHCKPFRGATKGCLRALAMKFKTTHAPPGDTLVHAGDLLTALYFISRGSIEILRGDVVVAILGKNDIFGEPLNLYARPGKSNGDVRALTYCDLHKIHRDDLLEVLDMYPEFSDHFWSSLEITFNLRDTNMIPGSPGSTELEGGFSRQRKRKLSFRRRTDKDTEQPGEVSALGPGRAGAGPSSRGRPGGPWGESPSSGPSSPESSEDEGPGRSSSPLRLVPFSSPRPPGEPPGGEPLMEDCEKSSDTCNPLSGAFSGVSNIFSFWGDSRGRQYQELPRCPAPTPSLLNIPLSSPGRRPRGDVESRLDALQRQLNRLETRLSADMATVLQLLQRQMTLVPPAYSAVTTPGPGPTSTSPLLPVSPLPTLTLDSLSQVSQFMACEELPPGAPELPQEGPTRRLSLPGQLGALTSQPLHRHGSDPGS

**Q.** `CCn1nnnc1SCC(=O)NC1Cc2ccccc2C1` was tested. Which “hERG current change (%, negative = inhibition) at 1uM” value did it give?
**A.** 15.4%

**Q.** With `CC(=O)NC1(C(F)(F)F)C(=O)Nc2c1c(=O)[nH]c(=O)n2CCc1ccccc1` (centres unmarked) as the compound, how does the “hERG current change (%, negative = inhibition) at 1uM” value read?
**A.** 13.6%

**Q.** Which “hERG current change (%, negative = inhibition) at 1uM” value does the source give for `O=C(O)COCC(=O)N1CCN(C(c2ccccc2)c2ccccc2)CC1` here?
**A.** 4.78%

**Q.** Which “hERG current change (%, negative = inhibition) at 1uM” value does the source give for `CSc1ccccc1OCc1cc(C(=O)N2CCN(c3ccccc3)CC2C)no1` (centres unmarked) here?
**A.** 8.41%

**Q.** With `O=C(O)c1cn[nH]c1-c1cccc([N+](=O)[O-])c1` as the compound, how does the “hERG current change (%, negative = inhibition) at 1uM” value read?
**A.** 15.8%

**Q.** With `CC(C(O)C12CC3CC(CC(C3)C1)C2)N1CCCCC1.Cl` (centres unmarked) as the compound, how does the “hERG current change (%, negative = inhibition) at 1uM” value read?
**A.** 14.8%

**Q.** `CCC(C)NC(=O)NC1C(NC(=O)NC(C)CC)N(C)C(=O)N1C` (centres unmarked) was tested. Which “hERG current change (%, negative = inhibition) at 1uM” value did it give?
**A.** 14.2%

**Q.** For `CCCCNC(=S)N(C)/N=C/c1ccccc1F`, which “hERG current change (%, negative = inhibition) at 1uM” value is on record?
**A.** 8.52%

**Q.** Which “hERG current change (%, negative = inhibition) at 1uM” value does the source give for `CC(C)CCNC(=O)CN(Cc1ccc2c(c1)OCO2)C(=O)CCC(=O)Nc1ccccn1` here?
**A.** -32.9%

**Q.** How did the “hERG current change (%, negative = inhibition) at 1uM” value turn out when `CCCCNC(=O)c1onc(CSc2cc(C)cc(C)c2)c1C(=O)NCCCC` was run?
**A.** 12.6%

**Q.** For `N#Cc1c(F)cccc1N1CCN(Cc2ccc3c(c2)OCO3)CC1`, which “hERG current change (%, negative = inhibition) at 1uM” value is on record?
**A.** -36.9%

**Q.** `NC(=O)CNc1n[nH]c(=S)[nH]c1=O` was tested. Which “hERG current change (%, negative = inhibition) at 1uM” value did it give?
**A.** 12.7%

**Q.** Which “hERG current change (%, negative = inhibition) at 1uM” value does the source give for `OCC1CCCCN1C(=S)Nc1cccc(Cl)c1` (centres unmarked) here?
**A.** -0.734%

**Q.** For `COc1ccccc1NC(=S)N1CCn2cccc2C1c1cccnc1` (centres unmarked), which “hERG current change (%, negative = inhibition) at 1uM” value is on record?
**A.** 1.4%

**Q.** With `Cc1cc(C)cc(NC(=O)CCn2c(=S)[nH]c3ccccc3c2=O)c1` as the compound, how does the “hERG current change (%, negative = inhibition) at 1uM” value read?
**A.** 9.17%

**Q.** For `COc1ccc2cc(C(C)C(=O)N3CCC(C(N)=O)CC3)ccc2c1` (centres unmarked), which “hERG current change (%, negative = inhibition) at 1uM” value is on record?
**A.** 3.43%

**Q.** How did the “hERG current change (%, negative = inhibition) at 1uM” value turn out when `NC(=O)c1nsc(C(=O)N(Cc2cccnc2)C(C(=O)NCc2ccc(F)cc2)c2ccc(F)cc2)c1N` (centres unmarked) was run?
**A.** 19.2%

**Q.** `CCc1ccc2oc(=O)cc(CN3CCN(CCO)CC3)c2c1` was tested. Which “hERG current change (%, negative = inhibition) at 1uM” value did it give?
**A.** 11.4%

**Q.** For `O=C(COC(=O)Cc1ccsc1)NC(c1ccccc1)c1ccccc1`, which “hERG current change (%, negative = inhibition) at 1uM” value is on record?
**A.** 15.3%

**Q.** `O=C(CC1NC(=S)NC1=O)c1ccc(Cl)cc1` (centres unmarked) was tested. Which “hERG current change (%, negative = inhibition) at 1uM” value did it give?
**A.** 12.5%

**Q.** How did the “hERG current change (%, negative = inhibition) at 1uM” value turn out when `O=C(CSc1n[nH]c(-c2ccccc2Br)n1)NCCN1C(=O)CSC1=O` was run?
**A.** 18.9%

**Q.** With `Cc1ccc(S(=O)(=O)CCC(=O)OCC(=O)c2ccc(F)cc2)cc1` as the compound, how does the “hERG current change (%, negative = inhibition) at 1uM” value read?
**A.** 6.33%

**Q.** `Fc1ccc(CSc2ccc(-c3cccs3)nn2)cc1` was tested. Which “hERG current change (%, negative = inhibition) at 1uM” value did it give?
**A.** 11.7%

**Q.** How did the “hERG current change (%, negative = inhibition) at 1uM” value turn out when `O=C(Cc1sc(-c2ccccc2)nc1-c1ccccc1)Nc1ccc(Cl)cc1` was run?
**A.** 2.24%

**Q.** How did the “hERG current change (%, negative = inhibition) at 1uM” value turn out when `NC1=NC(=Nc2ccc(S(=O)(=O)N3CCOCC3)cc2)c2ccccc21` was run?
**A.** 5.78%

**Q.** With `CC(=O)C1=C(O)C(=O)N(CCc2c[nH]c3ccccc23)C1c1cccc(O)c1` (centres unmarked) as the compound, how does the “hERG current change (%, negative = inhibition) at 1uM” value read?
**A.** 8.05%

**Q.** How did the “hERG current change (%, negative = inhibition) at 1uM” value turn out when `CCN1CCN(C(=S)c2ccc(O)cc2)CC1` was run?
**A.** 9.02%

**Q.** `COc1ccc(CCNC(=O)C2CCN(C(=O)NC3CCCCC3)CC2)cc1` was tested. Which “hERG current change (%, negative = inhibition) at 1uM” value did it give?
**A.** 10.2%

**Q.** Which “hERG current change (%, negative = inhibition) at 1uM” value does the source give for `O=C(O)c1ccc(N/N=C/c2ccc(C(F)(F)F)cc2)cc1.O=S(=O)(O)O` here?
**A.** 5.07%

**Q.** With `CCN(CC)S(=O)(=O)c1cccc(C(=O)N2CC(O)CC2C(=O)O)c1` (centres unmarked) as the compound, how does the “hERG current change (%, negative = inhibition) at 1uM” value read?
**A.** -7.03%

**Q.** `COCC1CCCCN1Cc1cn[nH]c1-c1ccc(OC)cc1OC` (centres unmarked) was tested. Which “hERG current change (%, negative = inhibition) at 1uM” value did it give?
**A.** 2.68%

**Q.** How did the “hERG current change (%, negative = inhibition) at 1uM” value turn out when `Cc1ccc(NCC(=O)c2ccc(C)cc2)cc1` was run?
**A.** 11.5%

**Q.** For `Cc1ccc(NC(=O)CN2C(=O)c3ccccc3S2(=O)=O)c(C)c1`, which “hERG current change (%, negative = inhibition) at 1uM” value is on record?
**A.** 8.93%

**Q.** Which “hERG current change (%, negative = inhibition) at 1uM” value does the source give for `COc1ccc(Cl)cc1NC(=O)CSc1nc(N2CCOCC2)nc(N2CCOCC2)n1` here?
**A.** 11%

**Q.** Which “hERG current change (%, negative = inhibition) at 1uM” value does the source give for `O=C(c1cnc2ccccn2c1=O)N1CCCc2ccccc21` here?
**A.** 2.62%

**Q.** How did the “hERG current change (%, negative = inhibition) at 1uM” value turn out when `O=C(O)c1ccc(-c2ccccc2)[nH]c1=O` was run?
**A.** 6.74%

**Q.** How did the “hERG current change (%, negative = inhibition) at 1uM” value turn out when `O=C(O)c1cc(-c2ccc(/C=C3\NC(=O)N(c4ccc(Cl)cc4)C3=O)o2)ccc1Cl` was run?
**A.** 13.6%

**Q.** For `CC(C)(CNC(=O)c1ccc(S(=O)(=O)Nc2cccc(C(F)(F)F)c2)cc1)N1CCOCC1`, which “hERG current change (%, negative = inhibition) at 1uM” value is on record?
**A.** -8.04%

**Q.** With `N#Cc1c(SCc2cccc(Cl)c2)sc(C(=O)c2ccccc2)c1N` as the compound, how does the “hERG current change (%, negative = inhibition) at 1uM” value read?
**A.** 13.6%

**Q.** `CCOC(=O)c1sc2ncnc(N3CCN(CC)CC3)c2c1C` was tested. Which “hERG current change (%, negative = inhibition) at 1uM” value did it give?
**A.** -9.54%

**Q.** Which “hERG current change (%, negative = inhibition) at 1uM” value does the source give for `CN(C)C(=O)/C(=C\c1ccc(-c2cccc([N+](=O)[O-])c2)o1)NC(=O)c1ccccc1` here?
**A.** -30.1%

**Q.** For `COc1ccc(NC(=O)C(c2ccc(OC)cc2)N(C)C(=O)Cc2cccs2)cc1` (centres unmarked), which “hERG current change (%, negative = inhibition) at 1uM” value is on record?
**A.** 0.764%

**Q.** Which “hERG current change (%, negative = inhibition) at 1uM” value does the source give for `Cc1nc(NC(=O)c2ccc3c(c2)OCO3)ccc1Br` here?
**A.** 11%

**Q.** For `COc1ccc(S(=O)(=O)Nc2c(C)ccc3nsnc23)cc1OC`, which “hERG current change (%, negative = inhibition) at 1uM” value is on record?
**A.** -0.479%
